Values quoted from earlier work, collected in patent publication US20120231025A1 (priority 2009, published 2012).

Tested on: hematopoietic cells
Details: irradiated animals; U.S. Pat. No. 6,159,950, Examples 5 and 7; cited from earlier work

H-L-Ile-L-Glu-L-Trp-OH [Neogen]
Hematopoietic progenitors, spleen colony forming units (CFU-S): more hematopoietic progenitors
